# Experimental data: article PMC4336329 (PLoS ONE, 2015)
# Among all 310,000 compounds or so, about 14,000 (4.5%) showed an effect of 50% or more. The effect is printed as a negative number. The list shows a part of the results.
# Target: human ether-à-go-go-related gene (hERG) potassium channel (human, UniProt Q12809)
# Assay: primary screen, population patch clamp on CHO cells stably expressing hERG
# 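Further: peak tail current of the secondary pulse compared with the same well before compound.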
# Chain of human ether-à-go-go-related gene (hERG) potassium channel (Q12809 whole entry, looked up): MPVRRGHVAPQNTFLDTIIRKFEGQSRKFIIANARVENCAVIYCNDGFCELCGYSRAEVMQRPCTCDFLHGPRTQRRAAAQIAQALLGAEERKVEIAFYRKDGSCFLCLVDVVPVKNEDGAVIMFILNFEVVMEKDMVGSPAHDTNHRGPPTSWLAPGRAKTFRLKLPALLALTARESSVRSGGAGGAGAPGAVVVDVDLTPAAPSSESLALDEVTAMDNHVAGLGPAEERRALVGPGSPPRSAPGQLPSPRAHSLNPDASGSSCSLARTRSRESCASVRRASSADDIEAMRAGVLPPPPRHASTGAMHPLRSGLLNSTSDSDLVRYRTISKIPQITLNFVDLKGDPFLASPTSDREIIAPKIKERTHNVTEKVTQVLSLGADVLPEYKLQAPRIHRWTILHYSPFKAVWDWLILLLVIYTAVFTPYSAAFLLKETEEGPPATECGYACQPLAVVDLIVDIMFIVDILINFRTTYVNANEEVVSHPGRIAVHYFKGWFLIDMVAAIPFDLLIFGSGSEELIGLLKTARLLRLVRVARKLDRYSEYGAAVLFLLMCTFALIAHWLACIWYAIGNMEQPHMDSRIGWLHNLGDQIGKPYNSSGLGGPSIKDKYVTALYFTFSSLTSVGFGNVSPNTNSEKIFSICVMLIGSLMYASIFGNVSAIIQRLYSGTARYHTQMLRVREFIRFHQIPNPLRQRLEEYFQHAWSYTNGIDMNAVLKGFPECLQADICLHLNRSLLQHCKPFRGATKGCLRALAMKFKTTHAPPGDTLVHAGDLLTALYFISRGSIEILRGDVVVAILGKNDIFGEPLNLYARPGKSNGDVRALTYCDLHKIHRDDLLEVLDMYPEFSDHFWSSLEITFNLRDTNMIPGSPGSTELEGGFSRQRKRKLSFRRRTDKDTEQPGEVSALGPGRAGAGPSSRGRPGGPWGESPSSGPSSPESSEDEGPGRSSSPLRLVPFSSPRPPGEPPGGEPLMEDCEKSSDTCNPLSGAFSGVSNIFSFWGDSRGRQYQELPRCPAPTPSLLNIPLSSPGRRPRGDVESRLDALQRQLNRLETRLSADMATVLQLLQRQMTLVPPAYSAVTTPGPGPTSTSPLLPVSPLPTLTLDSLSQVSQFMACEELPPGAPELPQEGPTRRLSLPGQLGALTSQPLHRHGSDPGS
row,SMILES,"hERG current change (%, negative = inhibition) at 10uM"
1,CN1C(=O)CC(P(=O)(c2ccccc2)c2ccccc2)N(C)C1=O (stereo not drawn),17.1%
2,CCN(Cc1ccncc1)Cc1ccc(Br)cc1.O=C(O)C(=O)O,-5.38%
3,Cc1ccc(C2C3=C(CC(C)(C)CC3=O)N=C3c4ccccc4C(=O)C32)cc1 (stereo not drawn),-12%
4,CCOC(=O)c1nncc(-c2ccccc2)n1,9.45%
5,COc1ccc2[nH]c3c(=O)n(/N=C/c4ccc(OC)c(CN5CCCC5)c4)c(C)nc3c2c1,-45.3%
6,COc1ccc(-c2nnn(CC(=O)OC3CCCCC3)n2)cc1OC,-8%
7,COc1ccc(NCc2n[nH]c(=O)c3ccccc23)cc1,4.37%
8,CN1c2ccccc2C(C)(C)C12CC(c1ccc(S(=O)(=O)N3CCCCC3)cc1)=NO2 (stereo not drawn),8.51%
9,CSc1cccc(NC(=S)N2CCCN(Cc3ccccc3F)C2)c1,-20.3%
10,CC(C)(C)OC(=O)N1CCC(NC(=O)c2[nH]cnc2C(=O)Nc2ccccc2)CC1,-15%
11,CCOc1ccc(S(=O)(=O)NCCCn2ccnc2)cc1,-9.31%
12,CCN1CCc2c(sc(NC(=O)c3ccc(S(=O)(=O)N(C)CC4CCCO4)cc3)c2C(N)=O)C1.Cl (stereo not drawn),-17.8%
13,O=C(O)CSC1c2ccccc2C(=O)N1Cc1ccccc1 (stereo not drawn),11.1%
14,CCN(CC)S(=O)(=O)c1ccc(C(=O)NN(C)C2=NS(=O)(=O)c3ccccc32)cc1,14.9%
15,CN(C)c1ccc(C2C3C=CC(C3)C2(C#N)C(=O)O)c(Br)c1 (stereo not drawn),12.2%
16,CCC(C)Sc1nc2c(c(=O)n1C)SC(C)C2 (stereo not drawn),-17.5%
17,N#C/C(=C\c1ccc2c(c1)OCCO2)C(=O)NC1CCCCC1,3.05%
18,CCCNC(=O)COC(=O)c1cccnc1Nc1ccccc1F,-9.21%
19,CN(CCc1ccccn1)c1ncnc2[nH]ncc12,0.429%

row,SMILES,"hERG current change (%, negative = inhibition) at 10uM"
1,CCOC(=O)N/N=C/C=C/c1ccccc1,1.98%
2,Cc1cc(C(=O)NCCCn2ccnc2)cs1,-22.1%
3,CCOc1cc(C2C(C(=O)OC)=CN(Cc3ccc(Cl)cc3)C=C2C(=O)OC)ccc1O,-2.9%
4,Cc1ccoc1C(=O)NCc1occc1C(=O)O,-5.26%
5,COc1cc(C2SC(C)C(=O)N2CCc2ccccc2)cc(OC)c1OC (stereo not drawn),-2.74%
6,COc1ccc(CCN(C)C2CCCN(C(=O)c3sccc3C)C2)cc1OC (stereo not drawn),-55%
7,Nc1nonc1-c1noc(COc2ccccc2Cl)n1,-20.4%
8,Cc1ccc(C(=O)NN(CCC#N)C2=NS(=O)(=O)c3ccccc32)cc1,2.12%
9,C/C(=N/NC(=O)c1ccc2c(c1)OCO2)c1ccc(NC(=O)C(F)(F)F)cc1,-3.67%
10,Oc1cc2ccccc2nc1-c1ccccc1Cl,10.5%
11,O=C(NCc1ccco1)c1ccc(CS(=O)(=O)Cc2ccc(Cl)cc2)o1,-22.1%
12,COc1ccccc1N1CCN(C(CNC(=O)c2ccco2)c2cccnc2)CC1 (stereo not drawn),-6.27%
13,Br.CCCN1CCc2cc(O)cc3c2[C@H]1Cc1ccc(O)c(O)c1-3.O,-57.8%
14,CN(C)C(=O)c1cnc(Sc2ncc(C(F)(F)F)cc2Cl)n1C,1.29%
15,CCNS(=O)(=O)c1ccc(CCC(=O)NCc2ccccc2)cc1,-19.6%
16,O=C(CCc1cccc(Cl)c1)NC1CCCN(Cc2ccccc2F)C1 (stereo not drawn),-28.3%
17,Cc1ccc(-c2onc3ccc(C4(C)OCCO4)cc23)cc1,1.79%
18,Cc1ccc2oc(C(=O)NCC(c3ccco3)N(C)C)c(C)c2c1 (stereo not drawn),-8.52%
19,Clc1cc(Cl)c(-c2cc(Cl)c(Cl)cc2Cl)cc1Cl,18.2%

row,SMILES,"hERG current change (%, negative = inhibition) at 10uM"
1,CCCNC(=O)C1CCN(S(=O)(=O)c2cccc3nonc23)CC1,-3.97%
2,CC1CCCCC1NC(=O)COC(=O)c1ccc(S(=O)(=O)N2CCOCC2)cc1 (stereo not drawn),13.6%
3,Cc1cc(C)n(C(=O)/C(C#N)=C/N(C)C)n1,0.348%
4,COc1ccc(N2CCN(C(=O)c3ccc(OCc4c(C)noc4C)c(OC)c3)CC2)cc1,6.01%
5,CCn1c(=S)sc2c(=O)n(CC(=O)Nc3cc(OC)ccc3OC)c(C)nc21,-14.4%
6,Cc1nn(CC(=O)N2CCN(c3ccccc3)CC2)c(=O)c2ccccc12,-2.21%
7,Cc1cc(OCc2n[nH]c(=S)n2-c2ccccc2)ccc1Cl,21.2%
8,CCCC(=O)N/C(N)=N/c1nc(C)c2cc(C)ccc2n1,-23.8%
9,COc1cc(C#Cc2c(-c3cncn3C)n(C)c3ccc(-c4ccc(OC)nc4)cc23)cc(OC)c1,10.8%
10,CCOc1ncccc1C(=O)OCc1csc(CC(=O)Nc2ccccc2C)n1,0.199%
11,COc1ccccc1N(C)S(=O)(=O)c1ccc(C(=O)OCC(=O)Nc2ccccc2F)cc1,11.9%
12,Cc1ccc2c(Cn3ccnc3)cc(=O)oc2c1C,13.7%
13,Cc1ccc2c(c1)[C@H]1[C@H](CO2)[C@H](c2ccccc2)[C@]2(C)C(=O)Nc3cc(Cl)ccc3C(=O)N12,23.9%
14,Cc1csc(N2CCc3ccccc32)n1,-11.1%
15,CCOC(=O)C1=C(C)N(CCCC(=O)O)C(=O)NC1c1ccc2ccccc2c1 (stereo not drawn),-9.51%
16,O=C(NN1C(=O)c2ccccc2NC1c1ccccc1OCc1ccccc1)c1ccncc1 (stereo not drawn),-1.43%
17,Cc1ccccc1CN1CCNC1=O,11.1%
18,Cc1nc(CSc2ccc(Br)cc2)cs1,22.9%
19,COC(=O)c1cc(C(=O)c2ccc(Cl)cc2Cl)cn1C,-16.4%
